# Measurements taken from the supplement of paper PMC3334620.
# Whole data set: some 33,000 sequences, median “E-score (-0.5 to 0.5)” near -0.036, cut for the highest 2% near 0.37. The list shows a part of the results.
# Target: T1, Yer064c (UniProt P40041)
# T1 sequence: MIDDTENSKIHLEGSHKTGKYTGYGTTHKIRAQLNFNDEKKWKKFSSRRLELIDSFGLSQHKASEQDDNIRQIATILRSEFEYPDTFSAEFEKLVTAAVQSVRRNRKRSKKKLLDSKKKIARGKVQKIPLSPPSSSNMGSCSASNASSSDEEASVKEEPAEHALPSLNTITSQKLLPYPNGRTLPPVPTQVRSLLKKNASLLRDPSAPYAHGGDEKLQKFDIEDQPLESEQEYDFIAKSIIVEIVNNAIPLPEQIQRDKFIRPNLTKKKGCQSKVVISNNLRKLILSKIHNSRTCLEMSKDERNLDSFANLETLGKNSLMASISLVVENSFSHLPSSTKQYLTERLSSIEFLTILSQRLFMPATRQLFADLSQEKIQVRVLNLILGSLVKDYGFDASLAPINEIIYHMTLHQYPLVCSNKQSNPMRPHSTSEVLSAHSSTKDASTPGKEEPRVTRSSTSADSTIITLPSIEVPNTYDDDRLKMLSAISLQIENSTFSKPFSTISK
# Test: PBM E-score (8-mer binding enrichment) (E-score (-0.5 to 0.5)); higher = stronger / more preferred TF binding; most listed sequences are background and not binding sites
# Conditions: protein concentration: 200 nM; construct: GST-full length
# Method in brief: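 Yeast transcription factors, full-length or as DNA-binding domains, were expressed with a GST tag using PURExpress in vitro transcription/translation. At about 100-200 nM they were applied to universal all-10-mer Agilent arrays, double-stranded by primer extension on fresh or once-stripped slides. Fluorescent anti-GST detected bound protein, and masliner normalised the scans. E-scores for ungapped eight-base words, pooled with reverse complements, came from the Universal PBM Analysis Suite.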
row,Sequence,PBM E-score
1,AACGTGAA,0.00711
2,CTTATGGA,-0.0524
3,ATCAGCGA,0.0822
4,ATCGATCG,-0.0738
5,ATGATGGA,0.0706
6,AATAGCTC,-0.109
7,CGACACGC,0.0272
8,CAGGCTGG,-0.284
9,CTAATCCC,-0.231
10,AAGCACAC,-0.201
11,CTATCGGA,-0.0498
12,ATCCCGGC,-0.168
13,AAAGCGCG,-0.121
14,AAGTCTGC,-0.106
15,GCAATATA,-0.0194
16,CTAGACCC,-0.196
17,ATTTCCGA,0.0799
18,TGTTTCAA,0.159
19,AACAAAGA,0.0853
20,AAACAGCA,-0.0503
21,CTGTGCGA,-0.133
22,CTGGAGTA,0.0648
23,CGTGAGTC,0.48
24,CGCCCATC,-0.148
25,GCTACGGA,-0.0699

row,Sequence,PBM E-score
1,CAACACGC,-0.0402
2,AGACTTCG,0.125
3,ACCCCCAA,-0.147
4,ACGCCTAA,0.0472
5,AGTTCTGC,-0.203
6,AAACCTCC,-0.265
7,ACTAATAA,0.302
8,CGCGTACG,0.0918
9,ACTCCGAT,0.127
10,ATGGGCTC,0.131
11,CGATCTAG,0.0702
12,AGACCTTG,-0.0519
13,AACTTCGC,-0.167
14,CTGCGCCA,-0.102
15,ATAATGAC,0.257
16,TGTCCGAA,0.0441
17,AGGTTGAG,0.109
18,AACCTCTA,-0.316
19,CTGTTTTC,-0.0359
20,ACAGGAGC,-0.159
21,CCAGCAGG,-0.207
22,GTGCGGTA,-0.151
23,AGTAGAGC,-0.187
24,AGCTCAAT,0.0257
25,CTTACTCA,0.373

row,Sequence,PBM E-score
1,AACTGGAG,-0.144
2,AACGTATC,-0.183
3,CCGGTACC,-0.324
4,ATAGAAAC,0.0311
5,AGGTCTGC,-0.172
6,AAGAGCTT,-0.105
7,GTAACGGA,-0.0515
8,GTAAGGAC,0.0623
9,ACAGGACG,-0.26
10,GTTTAAAC,0.159
11,AATACTAC,0.0915
12,ACGCTATC,-0.329
13,AGTAGACG,-0.06
14,GAAGTGTA,-0.0675
15,CCTCCGTC,-0.348
16,ATACTATC,-0.134
17,GCGTGCCA,-0.318
18,GATTCCAA,0.156
19,CCCAGGAC,-0.182
20,CGTGTAAG,0.173
21,TATGACCA,0.168
22,GCTCGTCA,0.00153
23,GGCTAACC,0.149
24,GAAGAAAC,-0.0572
25,CTAATGTA,-0.0853

row,Sequence,PBM E-score
1,AAACTAAA,0.0515
2,ACAGCTAC,-0.106
3,TAACCACA,0.169
4,GTAGGTAA,0.0229
5,ATAACGCA,-0.0857
6,CCGGAAAG,-0.251
7,TGTAAACA,0.0346
8,CATCGCTA,0.0273
9,CGGGAAAG,-0.127
10,ACGGTCAT,-0.0935
11,CTTCTGTC,0.00897
12,CTCTGACC,0.0452
13,CGCATTTC,-0.197
14,ACATGTAC,-0.098
15,ACCCATGA,0.169
16,ACCCCCGA,-0.132
17,GCATACCA,-0.129
18,TGGATCAA,0.073
19,ACGGATGC,-0.0804
20,CCAAATCA,0.228
21,CACGGAGC,0.0145
22,GGGAACTA,-0.212
23,GGACGTAA,-0.293
24,GATGAAGA,-0.00651
25,AGAGTGGC,-0.198

row,Sequence,PBM E-score
1,GGCTCCAA,-0.0978
2,GAGCCCGC,-0.28
3,ATCGCATC,-0.0513
4,AGTCTGTA,0.13
5,CAGTCGAC,0.206
6,ATAGACCC,-0.139
7,AGTCCTGC,0.241
8,CTGAGCAC,-0.115
9,CCCCCTGC,-0.373
10,AACTATCT,-0.0503
11,GCCTCCCC,-0.276
12,CTCGTCGA,0.084
13,AACTGAAT,0.101
14,GCAGACGC,-0.184
15,AAGGGGTC,-0.248
16,GAGGTACA,0.0616
17,CTATTCGC,0.0448
18,GTAATCAA,0.325
19,CAACTTGG,-0.133
20,AGGGTGAG,-0.0352
21,CGACATTC,0.0785
22,AGAGTACT,0.229
23,ATATCCTC,-0.209
24,GACCTTAA,0.0176
25,CTATATCC,-0.261

row,Sequence,PBM E-score
1,AGGGTGAC,0.225
2,CGGCAAGC,-0.179
3,ATTCATAA,0.254
4,CCGCACAG,-0.23
5,AGGCAATG,-0.0199
6,CTCGTGCC,-0.293
7,CCCTGGCG,-0.262
8,CCATGACA,0.0562
9,CTGCTGGA,-0.116
10,CAGTATCG,0.0472
11,ACAAGCCA,-0.142
12,ACCTATTA,-0.0852
13,ATAAACTC,0.135
14,GAAGTCCC,-0.2
15,GACGGGAA,0.0725
16,AGATTTCG,0.0946
17,AGAGTTGA,0.111
18,CATTTCTA,-0.167
19,GAACCCAC,0.0424
20,ACCGGCCG,-0.036
21,TGTACCAA,-0.125
22,GTGACCAA,0.0885
23,ATGATACG,0.0921
24,CTCTGGCC,-0.207
25,ATTGGCTA,0.0683

row,Sequence,PBM E-score
1,GTAACGTA,0.0151
2,CTTTATCC,-0.198
3,CTCGGCAA,-0.207
4,CAAGCAAC,-0.00895
5,ACCGAAGA,0.181
6,AATTCTAG,-0.0015
7,AATCAATT,0.188
8,AGCTAGCG,-0.219
9,ATACGTCC,-0.287
10,AGGATACC,-0.154
11,AGGCACTA,-0.154
12,AGTTTAGA,-0.0499
13,ACAAGTCG,0.0706
14,ACAGATCC,-0.0694
15,CCTATAAG,-0.126
16,AGGTGGAA,0.0297
17,AAACACGT,-0.0663
18,AGCGACCG,-0.103
19,AACGGCGG,-0.0937
20,CAACAGGG,-0.202
21,CTTGTTCA,-0.0481
22,ACAGTGGG,-0.212
